Cell count data for five molecules are collected here from the supplement of paper PMC4604168 (melanoma cell lines).

Common to all, as to experiment: cell count relative to DMSO control; melanoma cells; higher = more viable cells
Common to all, as to details: library dose: standard library concentration; 72 h

For assay [1], the system named is A101D.
The test system of assay [2] is A2058.
Assay [3] relates to A375.

This is one part of the list. Many values rest on one well or one pass, so single values are uncertain.
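Note: cells treated in 1,536-well plates, then fixed and DAPI-stained, with nuclei counted from automated high-throughput microscope images.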

With `Cc1cc(Nc2cc(N3CCN(C)CC3)nc(Sc3ccc(NC(=O)C4CC4)cc3)n2)n[nH]1` [Tozasertib] + C[C@]1(O)C[C@@H](c2nc(-c3ccc4ccc(-c5ccccc5)nc4c3)c3c(N)nccn32)C1 [OSI906] (first compound 0.03 µM, partner dose 2 µM), the cell count came out at 83.7% in assay [1], 79.1% in assay [2] and 74.3% in assay [3].

Consider `Cc1cc(Nc2cc(N3CCN(C)CC3)nc(Sc3ccc(NC(=O)C4CC4)cc3)n2)n[nH]1` [Tozasertib] + Cc1cn(-c2cc(NC(=O)c3ccc(C)c(Nc4nccc(-c5cccnc5)n4)c3)cc(C(F)(F)F)c2)cn1 [nilotinib] (first compound 0.03 µM, partner dose 1 µM), for which the cell count turned out to be 89.7% in assay [1], 90.9% in assay [2] and 138% in assay [3].

`N#CC[C@H](C1CCCC1)n1cc(-c2ncnc3[nH]ccc23)cn1` [ruxolitinib] + Nc1cccc2c1CN(C1CCC(=O)NC1=O)C2=O [lenalidomide] (first compound 5 µM, partner dose 5 µM): the cell count in assay [1] was 99.3%; in assay [2], 73.8%; in assay [3], 144%.

Regarding `Cc1cc(Nc2cc(N3CCN(C)CC3)nc(Sc3ccc(NC(=O)C4CC4)cc3)n2)n[nH]1` [Tozasertib] + Cc1ccc(NC(=O)c2cccc(N(C)C)c2)cc1NC(=O)c1ccc(O)cc1 [ZM336372] (first compound 0.03 µM, partner dose 10 µM), the values for the cell count in assay [1], in assay [2] and in assay [3] were 84.9%, 80.9% and 95.4%, respectively.

For the molecule `Cc1cc(Nc2cc(N3CCN(C)CC3)nc(Sc3ccc(NC(=O)C4CC4)cc3)n2)n[nH]1` [Tozasertib] + CCCS(=O)(=O)Nc1ccc(F)c(C(=O)c2c[nH]c3ncc(Cl)cc23)c1F [PLX4720] (first compound 0.03 µM, partner dose 0.4 µM), the cell count in assay [1] came to 78.3%; in assay [2], 84.8%; in assay [3], 97.2%.
